Measurements published in the supplement of paper PMC4466236.
The full ranking holds about 33,000 sequences; the median of “E-score (dimensionless, -0.5 to 0.5)” is about -0.058, and the highest 2% start at about 0.35. Some of the results follow.

These sequences were tested on MvaT (assay: PBM 8-mer E-score (mean of HK and ME arrays) (E-score (dimensionless, -0.5 to 0.5)); higher = stronger relative binding preference; most listed sequences are background and not binding sites).
In short: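 Reported values are rank-based E-scores, taken as the mean of two universal arrays and parsed with a custom script. Each 8-mer score falls between -0.5 and 0.5. The arrays, ME and HK, were double-stranded 60-mers with a constant 25-mer primer region and a variable 35-mer region covering all 8-mers. They were probed, by an earlier protocol, with full-length P. aeruginosa MvaT carrying an N-terminal glutathione S-transferase fusion.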

Sequence | PBM 8-mer E-score
ATATGGGA | 0.163
AAGAGAAC | -0.119
AGGAGGGG | -0.319
AACTCGCA | 0.121
GCACATTA | 0.19
AAATTGAA | 0.339
CTCACGAA | -0.0954
TAGAGATA | 0.0793
CCGACGTC | -0.152
ACTGATAA | 0.209
CTATTCTC | -0.0677
CTGGGCAC | -0.222
CATACTAA | 0.198
ACTCCTCT | 0.00157
TCTGCTAA | 0.0359
ATTAATCC | 0.332
CCCACGCA | -0.318
ACGTGGTC | -0.214
AGTTAATG | 0.271
ACTGGATA | 0.12
CTTGCTAC | -0.0295
ATGTAGGG | -0.0431
ACACTTAA | 0.294
AACCCCGT | -0.228
GCCTAGAC | -0.376

Sequence | PBM 8-mer E-score
CAGTATAA | 0.267
AAACAGTC | 0.106
AGCGAATC | -0.165
GATACTCC | 0.0038
ACATTGCC | 0.0616
CGGGAGAG | -0.265
TCGTTTCA | -0.055
CGAGTCGA | -0.198
GATACCAA | -0.0222
CTTGACGA | -0.0349
AAAGTATG | 0.216
ACGTGGTA | -0.0806
CAAAAAAG | 0.158
CTCGCAAC | -0.0813
GCCTACGC | -0.343
AATAATAG | 0.402
CATCGCGC | -0.106
CCCTCCAA | -0.365
ACTATCTG | 0.0744
AAGTGCAT | 0.059
ACCAGAAA | 0.0617
AGGCTCAT | -0.147
ACCTGTAA | 0.0435
CCCAGTAA | 0.052
TCGAAGAA | 0.0109

Sequence | PBM 8-mer E-score
ACAGAAAT | 0.154
ACATCGAG | 0.0417
TTGTAAAA | 0.277
GCGTTAAC | 0.1
CTTTATGC | -0.0172
AAATTGGC | 0.0942
AACGGCTG | -0.166
AGCGCGAG | -0.185
AAGCCACG | -0.171
CCATACAC | 0.0192
CGAGATAG | -0.0359
TAATCCGA | 0.0667
CTTAAAAG | 0.166
ACAAGATG | -0.0826
ATTCGCAG | 0.0329
ACAAGGAG | -0.284
AAGTTAGA | 0.302
ACCAAAGC | -0.174
AGGGTGGG | -0.118
ACGCGTGC | -0.0474
AGAGCGAT | -0.176
ATCTCAGG | -0.146
AGCCAACA | 0.0763
AGCCGGCA | -0.131
CATGTTAG | 0.177

Sequence | PBM 8-mer E-score
ATGATTTG | 0.182
CCTACAAC | -0.0135
GCACGTCA | -0.126
ATTTGTAG | 0.185
ATCACGTA | -0.0609
GCCACACC | -0.0459
TGGTACAA | 0.132
ACTAATCC | 0.0544
CGGGAGGC | -0.228
ATTGGATC | -0.0745
AACCGCGG | -0.119
CTGAGTTA | 0.199
TATTATGA | 0.311
GCCTGCCC | -0.211
GAGGGCCC | -0.271
AAGCGCCT | -0.184
CGAATTTA | 0.157
GCAATGTA | 0.134
ACCCCTGC | -0.216
TAGGCATA | 0.0695
GCATTGGC | -0.247
CACTTTGA | -0.0386
AACTCACT | 0.0925
GGCCAAAC | -0.055
CATTGGCA | -0.186

Sequence | PBM 8-mer E-score
AGTCTTGG | -0.0711
CGGCTAGC | -0.166
TCCCCGCA | -0.158
AAGGGGAT | -0.144
ATATTCGC | 0.249
GTCCGAGA | -0.233
CACATCGA | 0.0443
CAAAGTTG | 0.215
AAGAACAT | 0.139
CCCCCTAG | -0.314
ACGCGCAG | -0.197
GAAATCGC | 0.00463
AACTGTTC | 0.0192
AGCCCCAA | -0.198
CCACACTA | 0.108
CCTATGTC | 0.00443
AATCCAGC | 0.0434
GATACCCC | -0.235
ACTCATCT | -0.0202
CTGGAGAA | -0.0374
CAATTCGG | -0.0541
CAGAAAAG | 0.144
AAATCTCC | -0.144
AAGTCGAT | -0.0445
CTGAATAC | -0.0272

Sequence | PBM 8-mer E-score
TCATGCAA | -0.0609
AGCGATAC | 0.0789
CAGATAGG | -0.238
GTGATCAA | -0.117
AGTGCGCG | -0.0565
CCGCACGA | -0.13
ATAGCACG | 0.113
CTAATGAG | -0.253
ATGTTACC | 0.0796
AAAACGTT | 0.199
ACCGGATA | 0.0103
CAATAGTC | 0.146
CCCATGAC | -0.193
AAGGTATT | 0.152
AAGCGGTG | -0.19
CAAATAAA | 0.301
ACGCGCCT | -0.169
GTGCGGGA | -0.138
GTGGACTA | -0.00662
GGCAGGCA | -0.254
CCTCAAGC | -0.176
CGGTAACA | 0.0755
CCTAGATA | 0.0301
GCGAGCCC | -0.282
AATAGTCG | 0.218

Sequence | PBM 8-mer E-score
GCCCGTGA | -0.215
GCCTAGCC | -0.187
CGTGACCA | -0.166
CTGTAGGA | -0.18
AAGAGGCG | -0.192
AGAGCCAC | -0.08
AAGCACTT | 0.0782
ACACAACT | 0.112
AGCATTGA | -0.0767
AGGGAGCA | -0.225
TTCGTAAA | 0.0933
AGCTCATA | 0.00546
GACATCGA | 0.00909
CGCACCGC | -0.267
ATCGAGGA | -0.174
ATGTATTA | 0.399
GGCCCGAC | -0.151
AACTCTTA | 0.21
TACTCGCA | -0.0664
AAGCTACC | -0.0511
ACACTCAA | 0.0982
GTTACGGA | -0.0357
